Measured values published in the RNAGym collection of RNA variant scans (doi:10.7554/elife.90254).
The source gives no read counts; variants with many changes may rest on few reads.

B1: LINE1-mini (parent)
chain: GGCAGAGCUCAACACAGCGUGGCAAAGUGGCUGUGGCUAGACUGCC

Variants of: B1
Assay: self-cleavage, relative activity (ratio to wild type); higher = more cleavage; in vitro, sequencing; the parent is a self-cleaving ribozyme

Variant | self-cleavage
G1A C13G C23U G30A | 0.09
G1A C18A G19U A39U | 0.08
G1A C3U C8U C10A C18A A41C | 0.74
G1A G2U A26G | 0.07
G1A G2C C10U G27C | 0.03
G1A C8A C42A | 0.44
G1A C23U G27A G40C | 0.12
G1A A25C A26G G36U C42G | 0.04
G1A C15U G17A C31G U38C | 0.03
G1A C10U A16C U20C G29C G36A U38A C46A | 0.02
G1A A4U G5A C15G A16G | 0.04
G1A C10U A12G C42G | 0.1
G1A C13U A26C | 0.7
G1A C23A G36A | 0.11
G1A C3U C8G U28A A39G | 1.93
G1A A16C G19C C23U A24U | 0.1
G1A A11C U20G G33C | 0.02
G1A A12G U32A U38G A39G G40C | 0.02
G1A C18A G36A G40A | 0.23
G1A A24C G30C G36C | 0.04
G1A C3A G19U | 0.24

Variant | self-cleavage
G1A G2A C8A A16U G35C | 0.25
G1A C10A G19U C46A | 0.11
G1A C8A C18G G22C G33U G40A C46A | 0.13
G1A G2A U32A | 0.41
G1A A11C A26G G27C G29C C31G | 0.02
G1A C3U G22U C23A A24C C31G | 0.79
G1A C3G A11G A16U A25U C31G | 0.03
G1A A6C C18A A25C | 0.03
G1A C3G A4G A11G G40U C42G | 0.02
G1A C8A A12C G30U C37U | 0.03
G1A A6C G35A G40U | 0.05
G1A C18U A26G U28A | 0.08
G1A C18A A24C C37U | 0.1
G1A A16U A26U | 0.09
G1A A6U U20C | 0.43
G1A C15A G29A G44U | 0.01
G1A C13U C18U | 0.09
G1A G2A A16G | 0.24
G1A C3G A6G | 0.5
G1A C8G G21C | 0.23
G1A A24G A41U | 0.33

Variant | self-cleavage
G1A C8G G22U G35C G36U | 0.49
G1A A4G C10U G22A U34G | 0.13
G1A A14U A39C | 0.08
G1A A26G G33A | 0.06
G1A A12G C46A | 0.1
G1A C3A U38C | 2.38
G1A C8A G33A | 0.27
G1A A14G G30A A39C | 0.04
G1A C3U C8G | 2.33
G1A C10A A24U | 0.04
G1A A14C G21C G40C | 0.01
G1A G2C A25G | 0.02
G1A A14C G29U | 0.19
G1A A24G G29U U32A | 0.09
G1A G2A A14U C23U | 0.19
G1A A41C G44A | 0.07
G1A C10A U32A | 0.06
G1A C10U G22C U28G G33U G35A C42G | 0.04
G1A C3U A25C U38C A41U G44C | 0.6
G1A C18U A25G A39U | 0.15
G1A C8A C13A G22A U43C | 0.22

Variant | self-cleavage
G1A A14U C18G G19C G22U G27C | 0.07
G1A A6C G17C A25G C37A | 0.02
G1A G2A A4U C8A U9G C45A | 1.52
G1A C10A C18U G35U | 0.03
G1A G2A A14G U20G G27C G29C A41G | 0.03
G1A A25U A26G G27A C45U | 0.12
G1A C31A U32G G35A | 0.06
G1A C15U G29U U34G | 0.08
G1A A4C A6U A25U G35U G40A | 0.18
G1A G2C C10A G30U G35U | 0.01
G1A C18A A39U G40U A41C | 0.04
G1A C10A G40C C42A C45U | 0.28
G1A G2U C8A G19A U28G U43C | 0.07
G1A A6G G19U C45U | 0.26
G1A A16U G19A A39C C42G C46U | 0.02
G1A A4G A26G G30U G40U | 0.07
G1A G2A G17U A39C C42G | 0.05
G1A A12C U34G C37A A39G C46G | 0.03
G1A C8U C46A | 0.84
G1A C10A G33A | 0.04
